# Results from PubChem BioAssay AID504466 (National Center for Advancing Translational Sciences (NCATS), 2011).
# Among all 330,000 compounds or so, about 4,200 (1.3%) were called active. Inconclusive means that the source gave no clear call. Such entries were picked first, then a sample of the others. Calls come from the whole dose curve; as a rule, active = well fitted activation curve with a large enough effect; inconclusive = small, poorly fitted or top-dose-only effect; inactive = no such curve, though single readings can be large or run the other way. Potencies of inconclusive entries are doubtful fits and often do not repeat.
# Experiment: qHTS screen for small molecules that induce genotoxicity in human embryonic kidney (HEK293T) cells expressing luciferase-tagged ELG1; note: nearly all actives have a fitted effect of over 60% in size; for activity change, positive = activation: % of control where 0% means no effect
# Details: HEK293T ELG1-luciferase reporter, luminescence, 16 h; series mostly up to 46 µM; activity change, positive = activation: at the top concentration
# In short: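 Reporter readout depends on ELG1 protein level, which increases with genetic stress. After 16 hr compound exposure at 37 °C, luciferase activity was quantified using ONE-Glo.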
# Potency is the fitted concentration of half-maximal effect; tags give direction and shape of the fitted curve.
SMILES,Potency,"activity change, positive = activation"
COc1cc2c(c(OC)c1OC)-c1ccc(N(C)CC(OC)OC)c(=O)cc1[C@@H](NC(C)=O)CC2,"inconclusive: 2.06 µM [activator, full curve]",
CCN(CC(=O)Nc1ccc(OC)cc1)C(=O)c1ccc2ccccc2c1,,inactive: -1.49%
CCc1c(C)nc(SCC(=O)N2CCCCC2C)[nH]c1=O (stereo not drawn),"inconclusive: 29.1 µM [activator, partial curve, poor fit]",
O=C(O)c1ccc(N/N=C/c2cc3cc4c(cc3nc2Cl)OCCO4)cc1,active: 1.16 µM,
Cc1ccc(C(=O)c2oc3ccccc3c2N)cc1,"inconclusive: 23.1 µM [activator, partial curve, poor fit]",
COc1ccc(-c2csc(NC(=O)c3cccc(N4C(=O)CCC4=O)c3)n2)cc1C,,inactive: -6.38%
O=c1c(-c2nc3ccccc3s2)cccn1Cc1ccc(Cl)cc1,"inconclusive: 23.1 µM [activator, single point]",
O=C1NC(=O)/C(=C\c2ccc(Oc3cnccn3)cc2)S1,"inconclusive: 18.3 µM [activator, single point]",
COc1ccc2nc(N=Nc3c(O)ccc4ccccc34)sc2c1,,inactive: 7.02%
Cc1cc(-c2ccccc2)nc(-c2ccccc2)c1C,active: 20.6 µM,
Cc1cccc(N2CCN(C(=O)CCC(=O)N3CC(C)Oc4ccc(C)cc43)CC2C)c1 (stereo not drawn),,inactive: -11.2%
CCN1C(=O)c2cccc3c(S(=O)(=O)Nc4ccccc4)ccc1c23,"inconclusive: 5.8 µM [activator, full curve, poor fit]",
COc1ccc(S(=O)(=O)NC2CC(=O)N(c3ccc4c(c3)OCCO4)C2)cc1 (stereo not drawn),,inactive: 0.761%
Cc1ccc(C(=O)c2cc3ccccc3o2)cc1C,active: 16.4 µM,
Cc1[nH]c2ccccc2c(=O)c1CN(C)Cc1ccccc1,"inconclusive: 23.1 µM [activator, single point]",
Cc1nc(N2CCN(C)CC2)c2c(C)c(C(=O)Nc3ccc(C)c(F)c3)sc2n1,"inconclusive: 29.1 µM [activator, partial curve, poor fit]",
O=C(NC1CCCC1)C(c1ccc(F)cc1)N(Cc1ccccc1)C(=O)c1csnn1 (stereo not drawn),,inactive: -4.89%
COC(=O)c1ccc(N2CCOCC2)c(F)c1,"inconclusive: 25.9 µM [activator, partial curve, poor fit]",
CN(C)c1ccc(NC(=S)NC23CC4CC(CC(C4)C2)C3)cc1,"inconclusive: 20.6 µM [activator, partial curve, poor fit]",
CNC(=O)c1ccc(C)c(NC(=O)C2=C(C)OCCS2)c1,,inactive: 0.544%
CN1C2CCC1CC(NC(=O)c1cc(Cl)cc3[nH]cnc13)C2 (stereo not drawn),,inactive: -5.86%
CN(CCc1cnn(C)c1)C(=O)C1CCC(=O)N(CC2CCCCC2)C1 (stereo not drawn),,inactive: -0.0154%
Clc1ccc2nc3c4ccccc4cnn3c2c1,active: 8.2 µM,
COc1ccccc1-n1c(=S)[nH]c2c(sc(=S)n2-c2ccc(C)cc2C)c1=O,"inconclusive: 8.2 µM [activator, partial curve]",
O=C(Nc1ccc2nccnc2c1)c1cnccn1,"inconclusive: 18.4 µM [activator, partial curve]",

SMILES,Potency,"activity change, positive = activation"
CCC(=O)Nc1cc(-c2cc3ccccc3oc2=O)ccc1OC,"inconclusive: 2.31 µM [activator, full curve]",
Cc1ccc(-c2cn(-c3ccccc3)c(SCC(=O)NC3CCS(=O)(=O)C3)n2)cc1C (stereo not drawn),"inconclusive: 10.3 µM [activator, partial curve]",
COc1cc(OC)c2c(-c3cccc(-c4sccc4C(C)=O)c3)cc(=O)oc2c1,"inconclusive: 20.6 µM [activator, partial curve, poor fit]",
Cc1ccc(CNc2ccc(N3CCOCC3)cc2)s1,active: 4.11 µM,
O=C(O)CC/C(=C\c1ccc2c(c1)OCO2)c1nc2ccccc2s1,"inconclusive: 8.91 µM [activator, partial curve]",
CCCCC(NC(=O)CCc1c(C)c2cc3c4c(oc3c(C)c2oc1=O)CCCC4)C(=O)O (stereo not drawn),,inactive: 0.624%
COc1cccc(-c2noc(-c3cccs3)n2)c1,active: 1.3 µM,
Cc1ccc2sc(NC(=O)C3CC3)nc2c1C,"inconclusive: 16.4 µM [activator, partial curve, poor fit]",
CCC(=O)Nc1cccc(-c2nc3ccccc3c(=O)o2)c1,,inactive: -2.95%
CCCCc1c(O)nc2sc3cc(OC)ccc3n2c1=O,"inconclusive: 18.4 µM [activator, single point]",
CC(=O)c1c(Nc2ccc3c(c2)OCCO3)oc(C)cc1=O,"inconclusive: 20.6 µM [activator, single point]",
COc1cc(C(=O)NCCCCCCNC(=O)c2cc(OC)c(OC)c(OC)c2)cc(OC)c1OC,"inconclusive: 3.26 µM [activator, partial curve]",
CCc1ccc2c(c1)/C(=C/C(=O)c1cccs1)C(=O)N2,"inconclusive: 29.1 µM [activator, partial curve, poor fit]",
Cn1cc([N+](=O)[O-])c(C(=O)N2CCCCCC2)n1,,inactive: 7.87%
Cc1cc(NC(=O)c2ccc(Cl)cc2)no1,active: 8.2 µM,
C=CCS(=O)(=O)N1CCCC(Cc2ccccc2C)(C(=O)OCC)C1 (stereo not drawn),,inactive: -3.34%
Cc1sc2nc(SCCN(C)C)n(-c3ccccc3)c(=O)c2c1-c1ccc(F)cc1,,inactive: 0.023%
CSc1nc2cc(C)nn2c(-c2ccccc2)c1C#N,,inactive: 0.204%
COc1ccc(-c2ccc3c(c2)S(=O)(=O)c2cccc(C(=O)N4CCN(c5c(Cl)cncc5Cl)CC4)c2C3=O)cc1OC,,inactive: -5.11%
COc1ccc2[nH]c(=O)c(CN(C(=O)C3CCCO3)c3ccc(C)c(C)c3)cc2c1 (stereo not drawn),,inactive: 0.241%
CN(CCC#N)C(=O)COC(=O)c1ccccc1C(=O)c1ccc(Cl)c([N+](=O)[O-])c1,,inactive: -8.74%
O=C(NCc1ccc(F)cc1)C(C(=O)NCc1ccc(F)cc1)c1ncc(C(F)(F)F)cc1Cl,"inconclusive: 29.1 µM [activator, single point]",
CCCN1CCC(=NNc2ccc(C(=O)O)cc2)CC1,"inconclusive: 5.17 µM [activator, single point]",
Cc1ccc2nc(-c3ccc(NC(=O)C(C)N4C(=O)c5ccccc5C4=O)cc3)sc2c1 (stereo not drawn),"inconclusive: 18.4 µM [activator, partial curve]",
O=C(NCc1cc([N+](=O)[O-])ccc1O)c1cccnc1Sc1ccc(Cl)cc1,active: 6.51 µM,

SMILES,Potency,"activity change, positive = activation"
COc1cc(C2C(C#N)=C(N)OC3=C2C(=O)CC(C)(C)C3)ccc1OCCN1CCOCC1 (stereo not drawn),"inconclusive: 10.3 µM [activator, partial curve, poor fit]",
O=C(N/N=C/c1cccnc1)c1cccc(NC(=O)c2ccc(Cl)cc2)c1,,inactive: 3.4%
N#C/C(=C(/O)CN1CCCC1)c1nc(-c2ccccc2)cs1,"inconclusive: 18.3 µM [activator, partial curve]",
CCOC(=O)CC[C@H](NC(=O)Cn1cnc(C(=O)Nc2ccc(C)c(C)c2)n1)C(=O)OCC,"inconclusive: 18.3 µM [activator, partial curve]",
N/C(CS(=O)(=O)c1ccccc1)=N\OC(=O)c1ccc(F)cc1,"inconclusive: 23.1 µM [activator, partial curve, poor fit]",
O=C(CN1CCCCCC1)Nc1c(Cl)cc(Cl)cc1Cl,"inconclusive: 20.6 µM [activator, partial curve, poor fit]",
COc1ccc(Cn2c(C)cc3c(c2=O)C(c2cccs2)C(C#N)=C(N)O3)cc1OC (stereo not drawn),"inconclusive: 29.1 µM [activator, partial curve, poor fit]",
CCC(C)c1ccc(OCc2ccc(C(=O)O)o2)cc1 (stereo not drawn),active: 0.411 µM,
N/C(=N\c1nc2ccccc2o1)NC(=O)c1ccccc1F,"inconclusive: 5.8 µM [activator, full curve, poor fit]",
COc1ccc(-c2nnc(SCC(=O)Nc3cc(F)ccc3C)o2)cc1,"inconclusive: 23.1 µM [activator, single point]",
Cc1cccc(C(=O)c2c(N)sc3c2CCC(C)C3)c1 (stereo not drawn),"inconclusive: 25.9 µM [activator, partial curve, poor fit]",
CN(C)S(=O)(=O)Oc1cccc(C(=O)Nc2ccccc2Cl)c1,"inconclusive: 18.4 µM [activator, partial curve, poor fit]",
O=C(CSc1nnc2ccccn12)N1CCc2ccccc2C1,"inconclusive: 20.6 µM [activator, single point]",
COCCNS(=O)(=O)c1ccc(-c2ccc(S(=O)(=O)NCCOC)cc2)cc1,"inconclusive: 8.2 µM [activator, partial curve]",
CCOc1ccc(C(=O)CSc2nnc3ccccn23)cc1,active: 20.6 µM,
CCCOc1cccc(NC(=O)c2c(-c3ccccc3)noc2C)c1,,inactive: -8.77%
C[n+]1cc[nH]c1SCC(=O)c1ccccc1,active: 18.4 µM,
CCOC(=O)c1c(NC(=O)C2=C(C)NC(=S)NC2c2ccccc2C(F)(F)F)sc(C)c1C (stereo not drawn),,inactive: -0.864%
O=C(O)c1cccc(N=NN2CCCCCC2)c1,"inconclusive: 0.411 µM [activator, partial curve]",
O=C(CSc1ccccc1)Nc1nc2ccccc2[nH]1,"inconclusive: 16.4 µM [activator, partial curve, poor fit]",
CC(C)CC(=O)NC(=S)Nc1sc2c(c1C(N)=O)CCC2,"inconclusive: 16.4 µM [activator, partial curve]",
CCCSC1=NN2CCCC(=O)N=C2S1,"inconclusive: 32.6 µM [activator, partial curve, poor fit]",
O=C(O)c1ccccc1N/N=C/C1=C(N2CCOCC2)C(=C\c2ccccc2)/CC1,,inactive: -3.22%
